Results published in the supplement of paper PMC8728848.
Some of the results follow.

Columns and labels:
Assay in all cases: glycan array binding signal (z-score within array); higher = stronger binding
Conditions in all cases: glycan notation: IUPAC condensed, linker removed
Fuc(a1-2)Gal = biological target: Fuc(a1-2)Gal
Procedure, shortened: (§1)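 Arrays were curated from the Consortium for Functional Glycomics database, 3228 in total, and kept only where the protein sequence was available. Binding is expressed as a within-array Z-score. This score was averaged across arrays of the same protein sequence at different concentrations or buffers and across linkers, and negative values can be read as non-binding.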

Fuc(a1-2)Gal(b1-3)GalNAc = biological target: Fuc(a1-2)Gal(b1-3)GalNAc
Procedure, shortened: as §1

[1] = biological target: Fuc(a1-2)Gal(b1-3)GalNAc(b1-3)Gal
Procedure, shortened: as §1

[2] = biological target: Fuc(a1-2)Gal(b1-3)GalNAc(b1-3)Gal(a1-4)Gal(b1-4)Glc
Procedure, shortened: as §1

[3] = biological target: Fuc(a1-2)Gal(b1-3)GalNAc(b1-4)[Neu5Ac(a2-3)]Gal(b1-4)Glc
Procedure, shortened: as §1

Fuc(a1-2)Gal(b1-3)GlcNAc = biological target: Fuc(a1-2)Gal(b1-3)GlcNAc
Procedure, shortened: as §1

[4] = biological target: Fuc(a1-2)Gal(b1-3)GlcNAc(b1-3)Gal(b1-4)Glc
Procedure, shortened: as §1

[5] = biological target: Fuc(a1-2)Gal(b1-3)[Fuc(a1-4)]GlcNAc
Procedure, shortened: as §1

Fuc(a1-2)Gal(b1-4)Glc = biological target: Fuc(a1-2)Gal(b1-4)Glc
Procedure, shortened: as §1

Fuc(a1-2)Gal(b1-4)Glc6S = biological target: Fuc(a1-2)Gal(b1-4)Glc6S
Procedure, shortened: as §1

Fuc(a1-2)Gal(b1-4)GlcNAc = biological target: Fuc(a1-2)Gal(b1-4)GlcNAc
Procedure, shortened: as §1

[6] = biological target: Fuc(a1-2)Gal(b1-4)GlcNAc(b1-2)Man(a1-3)[Fuc(a1-2)Gal(b1-4)GlcNAc(b1-2)Man(a1-6)]Man(b1-4)GlcNAc(b1-4)GlcNAc
Procedure, shortened: as §1

[7] = biological target: Fuc(a1-2)Gal(b1-4)GlcNAc(b1-2)Man(a1-6)[Gal(b1-4)GlcNAc(b1-2)Man(a1-3)]Man(b1-4)GlcNAc(b1-4)GlcNAc
Procedure, shortened: as §1

[8] = biological target: Fuc(a1-2)Gal(b1-4)GlcNAc(b1-3)Gal(b1-4)GlcNAc
Procedure, shortened: as §1

[9] = biological target: Fuc(a1-2)Gal(b1-4)GlcNAc(b1-3)Gal(b1-4)GlcNAc(b1-3)Gal(b1-4)GlcNAc
Procedure, shortened: as §1

[10] = biological target: Fuc(a1-2)Gal(b1-4)GlcNAc6S
Procedure, shortened: as §1

[11] = biological target: Fuc(a1-2)Gal(b1-4)[Fuc(a1-3)]GlcNAc
Procedure, shortened: as §1

[12] = biological target: Fuc(a1-2)Gal(b1-4)[Fuc(a1-3)]GlcNAc(b1-3)Gal(b1-4)[Fuc(a1-3)]GlcNAc
Procedure, shortened: as §1

[13] = biological target: Fuc(a1-2)Gal(b1-4)[Fuc(a1-3)]GlcNAc(b1-3)Gal(b1-4)[Fuc(a1-3)]GlcNAc(b1-3)Gal(b1-4)[Fuc(a1-3)]GlcNAc
Procedure, shortened: as §1

Fuc(a1-2)Gal6S(b1-4)Glc = biological target: Fuc(a1-2)Gal6S(b1-4)Glc
Procedure, shortened: as §1

[14] = biological target: Fuc(a1-2)Gal6S(b1-4)Glc6S
Procedure, shortened: as §1

[15] = biological target: Fuc(a1-2)Gal6S(b1-4)GlcNAc
Procedure, shortened: as §1

Fuc(a1-2)[Gal(a1-3)]Gal = biological target: Fuc(a1-2)[Gal(a1-3)]Gal
Procedure, shortened: as §1

[16] = biological target: Fuc(a1-2)[Gal(a1-3)]Gal(b1-3)GlcNAc
Procedure, shortened: as §1

[17] = biological target: Fuc(a1-2)[Gal(a1-3)]Gal(b1-4)Glc
Procedure, shortened: as §1

[18] = biological target: Fuc(a1-2)[Gal(a1-3)]Gal(b1-4)GlcNAc
Procedure, shortened: as §1

[19] = biological target: Fuc(a1-2)[Gal(a1-3)]Gal(b1-4)[Fuc(a1-3)]GlcNAc
Procedure, shortened: as §1

[20] = biological target: Fuc(a1-2)[Gal(a1-4)]Gal(b1-4)GlcNAc
Procedure, shortened: as §1

[21] = biological target: Fuc(a1-2)[GalNAc(a1-3)]Gal
Procedure, shortened: as §1

[22] = biological target: Fuc(a1-2)[GalNAc(a1-3)]Gal(b1-3)GlcNAc
Procedure, shortened: as §1

[23] = biological target: Fuc(a1-2)[GalNAc(a1-3)]Gal(b1-4)Glc
Procedure, shortened: as §1

[24] = biological target: Fuc(a1-2)[GalNAc(a1-3)]Gal(b1-4)GlcNAc
Procedure, shortened: as §1

[25] = biological target: Fuc(a1-2)[GalNAc(a1-3)]Gal(b1-4)[Fuc(a1-3)]GlcNAc
Procedure, shortened: as §1

[26] = biological target: Fuc(a1-2)[GalNAc(a1-4)]Gal(b1-4)GlcNAc
Procedure, shortened: as §1

[27] = biological target: Fuc(a1-2)[GalNAc(b1-3)]Gal
Procedure, shortened: as §1

Fuc(a1-3)GlcNAc = biological target: Fuc(a1-3)GlcNAc
Procedure, shortened: as §1

[28] = biological target: Fuc(a1-3)[Gal(b1-4)]Glc6S
Procedure, shortened: as §1

[29] = biological target: Fuc(a1-3)[Gal(b1-4)]GlcNAc
Procedure, shortened: as §1

[30] = biological target: Fuc(a1-3)[Gal(b1-4)]GlcNAc(b1-3)Gal(b1-3)[Fuc(a1-4)]GlcNAc
Procedure, shortened: as §1

[31] = biological target: Fuc(a1-3)[Gal(b1-4)]GlcNAc(b1-4)Gal(b1-4)[Fuc(a1-3)]GlcNAc
Procedure, shortened: as §1

[32] = biological target: Fuc(a1-3)[Gal(b1-4)]GlcNAc(b1-4)Gal(b1-4)[Fuc(a1-3)]GlcNAc(b1-4)Gal(b1-4)[Fuc(a1-3)]GlcNAc
Procedure, shortened: as §1

[33] = biological target: Fuc(a1-3)[Gal(b1-4)]GlcNAc6S
Procedure, shortened: as §1

[34] = biological target: Fuc(a1-3)[Gal3S(b1-4)]Glc6S
Procedure, shortened: as §1

[35] = biological target: Fuc(a1-3)[Gal3S(b1-4)]GlcNAc
Procedure, shortened: as §1

[36] = biological target: Fuc(a1-3)[Gal3S(b1-4)]GlcNAc6S
Procedure, shortened: as §1

[37] = biological target: Fuc(a1-3)[GalNAc(b1-4)]GlcNAc
Procedure, shortened: as §1

Fuc(a1-4)GlcNAc = biological target: Fuc(a1-4)GlcNAc
Procedure, shortened: as §1

Fuc(b1-3)GlcNAc = biological target: Fuc(b1-3)GlcNAc
Procedure, shortened: as §1

Gal(a1-2)Gal = biological target: Gal(a1-2)Gal
Procedure, shortened: as §1

Gal(a1-3)Gal = biological target: Gal(a1-3)Gal
Procedure, shortened: as §1

Gal(a1-3)Gal(b1-3)GlcNAc = biological target: Gal(a1-3)Gal(b1-3)GlcNAc
Procedure, shortened: as §1

Gal(a1-3)Gal(b1-4)Glc = biological target: Gal(a1-3)Gal(b1-4)Glc
Procedure, shortened: as §1

Gal(a1-3)Gal(b1-4)GlcNAc = biological target: Gal(a1-3)Gal(b1-4)GlcNAc
Procedure, shortened: as §1

[38] = biological target: Gal(a1-3)Gal(b1-4)[Fuc(a1-3)]GlcNAc
Procedure, shortened: as §1

Gal(a1-3)GalNAc = biological target: Gal(a1-3)GalNAc
Procedure, shortened: as §1

[39] = biological target: Gal(a1-3)[Gal(a1-4)]Gal(b1-4)GlcNAc
Procedure, shortened: as §1

Gal(a1-4)Gal(b1-4)Glc = biological target: Gal(a1-4)Gal(b1-4)Glc
Procedure, shortened: as §1

Gal(a1-4)Gal(b1-4)GlcNAc = biological target: Gal(a1-4)Gal(b1-4)GlcNAc
Procedure, shortened: as §1

Gal(a1-4)GlcNAc = biological target: Gal(a1-4)GlcNAc
Procedure, shortened: as §1

Gal(a1-6)Glc = biological target: Gal(a1-6)Glc
Procedure, shortened: as §1

B1: RfpB (Mycobacterium tuberculosum), O05594 (protein)
chain: MAAGLVTASMSLSTAVAHAGPSPNWDAVAQCESGGNWAANTGNGKYGGLQFKPATWAAFGGVGNPAAASREQQIAVANRVLAEQGLDAWPTCGAASGLPIALWSKPAQGIKHAGPSPNWDAVAQCESGGNWAANTGNGKYGGLQFKPATWAAFGGVGNPAAASREQQIAVANRVLAEQGLDAWPTCGA
B1 was tested, and the “glycan array binding signal (z-score)” value (Fuc(a1-2)Gal) was -0.233, the “glycan array binding signal (z-score)” value (Fuc(a1-2)Gal(b1-3)GalNAc) was -0.406 and the “glycan array binding signal (z-score)” value [1] was -0.157. For the same binder, the “glycan array binding signal (z-score)” value [2] was -0.482, the “glycan array binding signal (z-score)” value [3] was -0.348 and the “glycan array binding signal (z-score)” value (Fuc(a1-2)Gal(b1-3)GlcNAc) was 0.352. For the same binder, the “glycan array binding signal (z-score)” value [4] was 0.242, the “glycan array binding signal (z-score)” value [5] was -0.637 and the “glycan array binding signal (z-score)” value (Fuc(a1-2)Gal(b1-4)Glc) was 0.119. For the same binder, the “glycan array binding signal (z-score)” value (Fuc(a1-2)Gal(b1-4)Glc6S) was 0.347, the “glycan array binding signal (z-score)” value (Fuc(a1-2)Gal(b1-4)GlcNAc) was -0.322 and the “glycan array binding signal (z-score)” value [6] was -0.692. For the same binder, the “glycan array binding signal (z-score)” value [7] was 1.16, the “glycan array binding signal (z-score)” value [8] was -0.41 and the “glycan array binding signal (z-score)” value [9] was 0.003. For the same binder, the “glycan array binding signal (z-score)” value [10] was 1.15, the “glycan array binding signal (z-score)” value [11] was -0.217 and the “glycan array binding signal (z-score)” value [12] was -0.487. For the same binder, the “glycan array binding signal (z-score)” value [13] was -0.564, the “glycan array binding signal (z-score)” value (Fuc(a1-2)Gal6S(b1-4)Glc) was 0.9 and the “glycan array binding signal (z-score)” value [14] was 1.14. The “glycan array binding signal (z-score)” value [15] was -0.188, the “glycan array binding signal (z-score)” value (Fuc(a1-2)[Gal(a1-3)]Gal) was 0.278 and the “glycan array binding signal (z-score)” value [16] was -0.591. For the same binder, the “glycan array binding signal (z-score)” value [17] was 0.337, the “glycan array binding signal (z-score)” value [18] was 0.359 and the “glycan array binding signal (z-score)” value [19] was -0.47. The “glycan array binding signal (z-score)” value [20] was 0.094, the “glycan array binding signal (z-score)” value [21] was 0.323 and the “glycan array binding signal (z-score)” value [22] was -0.544. For the same binder, the “glycan array binding signal (z-score)” value [23] was -0.175, the “glycan array binding signal (z-score)” value [24] was -0.711 and the “glycan array binding signal (z-score)” value [25] was -0.686. For the same binder, the “glycan array binding signal (z-score)” value [26] was 0.593, the “glycan array binding signal (z-score)” value [27] was 0.213 and the “glycan array binding signal (z-score)” value (Fuc(a1-3)GlcNAc) was 0.071. The “glycan array binding signal (z-score)” value [28] was 0.452, the “glycan array binding signal (z-score)” value [29] was -0.093 and the “glycan array binding signal (z-score)” value [30] was -0.065. For the same binder, the “glycan array binding signal (z-score)” value [31] was 1.25, the “glycan array binding signal (z-score)” value [32] was 0.15 and the “glycan array binding signal (z-score)” value [33] was -0.371. For the same binder, the “glycan array binding signal (z-score)” value [34] was 2.53, the “glycan array binding signal (z-score)” value [35] was -0.263 and the “glycan array binding signal (z-score)” value [36] was 0.11. The “glycan array binding signal (z-score)” value [37] was -0.17, the “glycan array binding signal (z-score)” value (Fuc(a1-4)GlcNAc) was -0.442 and the “glycan array binding signal (z-score)” value (Fuc(b1-3)GlcNAc) was -0.75. The “glycan array binding signal (z-score)” value (Gal(a1-2)Gal) was -0.546, the “glycan array binding signal (z-score)” value (Gal(a1-3)Gal) was -0.751 and the “glycan array binding signal (z-score)” value (Gal(a1-3)Gal(b1-3)GlcNAc) was -0.569. For the same binder, the “glycan array binding signal (z-score)” value (Gal(a1-3)Gal(b1-4)Glc) was -0.404, the “glycan array binding signal (z-score)” value (Gal(a1-3)Gal(b1-4)GlcNAc) was -0.667 and the “glycan array binding signal (z-score)” value [38] was -0.218. The “glycan array binding signal (z-score)” value (Gal(a1-3)GalNAc) was -0.21, the “glycan array binding signal (z-score)” value [39] was 0.986 and the “glycan array binding signal (z-score)” value (Gal(a1-4)Gal(b1-4)Glc) was -0.246. For the same binder, the “glycan array binding signal (z-score)” value (Gal(a1-4)Gal(b1-4)GlcNAc) was 0.863, the “glycan array binding signal (z-score)” value (Gal(a1-4)GlcNAc) was 1.87 and the “glycan array binding signal (z-score)” value (Gal(a1-6)Glc) was -0.413.
